# Data from the supplement of paper PMC12217912.
# The other results are listed elsewhere or left out. The full chains were built here from the parent and the listed change. Values near 0.05 are background.
# B1: TEV protease; numbered along this chain (parent)
# chain: MGESLFKGPRDYNPISSSICHLTNESDGHTTSLYGIGFGPFIITNKHLFRRNNGTLVVQSLHGVFKVKDTTTLQQHLVDGRDMIIIRMPKDFPPFPQKLKFREPQREERICLVTTNFQTKSMSSMVSDTSCTFPSGDGIFWKHWIQTKDGQCGSPLVSTRDGFIVGIHSASNFTNTNNYFTSVPKNFMELLTNQEAQQWVSGWRLNADSVLWGGHKVFMVKPEEPFQPVKEATQL
# Variants of: B1
# Test: raw area under fraction-flipped curve 0-4 h after induction (AUC4h, not background-subtracted), DNA-recorder readout of cleavage of the substrate (dimensionless); higher = more cleavage of the substrate by the protease variant
# Conditions: temperature: 34 °C; time window: 0-4 h after rhamnose induction
# Procedure: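 In vivo DNA recorder in E. coli TOP10(DE3) ΔrhaA at 34 °C. Each TEVp single-site mutant (parent TEVp 0) is paired with a single-site variant of the 7-mer TEVs (canonical ENLYFQ|S). The substrate sits between flexible linkers in a Bxb1-sfGFP-TEVs-SsrA fusion, so cleavage stabilises Bxb1 and speeds flipping of a recombination array, read by NGS. The value is the raw area under the fraction-flipped curve over 0-4 h after rhamnose induction (AUC4h), with ≥20 reads per time point. It is not background-subtracted; inactive controls average about 0.047.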
# 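Note: Bxb1 expression induced with 0.2% (w/v) L-rhamnose at OD600 near 0.5, cultures sampled hourly, flipped fraction per protease–substrate barcode pair counted by paired-end Illumina sequencing.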
Variant,area with substrate ENLYFAS,area with substrate ENLYFCS,area with substrate ENLYFIS,area with substrate ENLYFKS,area with substrate ENLYFMS,area with substrate ENLYFPS,area with substrate ENLYFRS,area with substrate ENLYFTS,area with substrate ENLYFVS,area with substrate ENLYFYS,area with substrate ENLYFDS,area with substrate ENLYFES,area with substrate ENLYFFS,area with substrate ENLYFHS,area with substrate ENLYFNS,area with substrate ENLYFSS,area with substrate ENLYFWS,area with substrate ENLYFGS,area with substrate ENLYFLS
G214M,0.0679,0.0534,0.0528,0.0592,0.0692,0.0883,0.0661,0.0571,0.0656,0.0637,–,–,–,–,–,–,–,–,–
M188T,0.0482,0.0656,0.055,0.0576,0.0704,0.0614,0.0559,0.0409,–,0.0542,0.0435,0.0625,0.0652,0.0514,0.0518,0.0447,0.0457,–,–
M188L,0.0668,0.0602,0.0687,0.0627,–,0.0595,–,0.0662,–,–,–,–,0.0635,–,–,0.0686,–,–,–
K230G,0.0727,–,0.0593,0.0606,–,0.0606,0.0592,0.0539,0.0642,–,–,0.0541,0.0694,–,0.093,0.0618,0.0622,0.0744,0.0442
G213S,0.0728,–,0.0691,0.059,0.0603,0.0544,–,0.0508,–,–,–,0.0546,0.0621,0.0469,0.0633,0.0571,–,–,–
F218S,0.0751,0.0608,0.0482,–,0.0833,0.0561,–,0.0489,0.0134,–,0.059,–,0.0546,0.0564,0.0784,–,0.0574,0.059,–
F218H,0.0564,–,0.0629,0.0969,0.0838,0.0588,0.0604,–,0.053,–,0.0751,0.0593,0.0604,–,–,–,–,0.0579,–
F218G,0.0739,–,0.0694,–,–,0.0606,–,–,–,0.0471,–,0.0523,0.0823,–,0.0495,0.0495,0.0605,–,0.0592
K221N,0.0557,0.056,0.0565,0.021,0.0643,0.0582,0.0545,0.0635,–,0.0606,0.0846,0.0698,0.0777,0.0478,0.0611,0.0648,0.0527,0.0606,0.0715
K221Y,0.0522,0.0508,0.05,–,0.062,0.0636,0.0563,–,–,0.0579,0.0716,0.0719,0.0685,0.0622,0.0605,0.0591,0.0449,–,0.0671
V229L,0.0508,0.0503,0.0568,0.0631,0.0658,0.0455,0.0543,0.0859,0.05,0.0529,–,0.064,0.0608,0.0547,0.0674,0.1,0.102,–,0.0683
V229Y,0.0638,0.0674,0.0625,0.063,0.071,0.0485,0.0609,0.0613,0.0511,0.0646,0.046,–,0.0768,0.0486,0.0633,–,0.0543,0.076,–
Q227M,0.0335,0.068,0.0543,–,0.071,0.0604,0.061,0.0657,0.054,0.067,0.0518,0.0654,–,0.0662,0.0635,0.0552,0.0545,–,0.0563
Q227P,0.0069,0.0731,–,0.0634,–,0.0561,0.0385,–,–,0.0394,–,–,0.0545,–,0.0655,0.0627,0.0462,–,–
Q227E,0.0566,0.0823,0.0554,–,0.066,0.0531,0.0541,0.0547,0.101,0.0754,0.0622,0.0977,–,–,0.0667,0.0773,0.0503,–,0.0577
E195D,0.0615,–,0.0583,0.0855,0.0733,–,–,–,–,–,–,0.065,0.0748,0.0409,–,0.0564,–,0.037,–
F226Y,0.0572,–,0.0547,0.0535,–,0.0608,–,0.0771,0.0536,0.0597,–,0.062,0.0576,0.0584,0.0624,–,0.0418,0.0603,0.0523
M219D,0.0656,0.0555,0.0519,0.0506,0.0646,0.0563,–,0.0565,–,–,0.0534,0.055,0.0636,–,0.0725,–,–,0.053,0.0612
M219R,0.0615,–,0.0584,0.067,0.0626,0.0535,0.0517,0.0567,0.0571,0.0619,0.048,0.0481,0.0674,0.0467,–,0.0597,0.07,–,0.054
E189V,0.0481,0.059,0.0614,0.0677,0.0709,0.0542,0.0622,0.0507,0.0545,–,–,0.0663,0.0589,0.0663,0.083,–,–,–,0.0606
P222V,0.0558,0.0412,0.0547,0.0631,0.0626,0.0669,0.053,0.0607,–,0.0627,0.0571,0.0593,0.0927,0.068,0.0633,0.0621,–,0.0506,–
K185P,0.0645,0.0808,–,0.0461,–,0.0477,–,0.0575,–,0.0503,–,0.0658,0.0685,–,0.0727,–,–,–,0.067
E231G,0.0613,0.0669,0.06,0.0611,0.0686,0.0539,0.0496,0.0598,–,–,0.06,0.0604,0.0795,–,0.0708,0.0533,0.0541,0.0593,0.0632
E231M,0.0526,0.0579,0.0568,–,0.064,0.0649,0.0656,0.0628,–,–,0.0684,0.0536,0.0592,–,–,0.0588,–,–,–
Q198Y,0.0607,0.0463,0.0576,0.053,0.0627,0.0625,–,0.0557,0.055,0.064,0.0502,0.0753,0.0401,–,0.0626,0.0647,0.0483,–,–
E3P,–,0.0476,0.0093,0.061,0.0679,–,–,–,–,0.0668,0.0666,0.0826,0.0815,–,0.08,0.0694,0.0486,0.0287,0.0563
